# Experimental data from the supplement of paper PMC4604168 (melanoma cell lines).
# This is one part of the list. Many values rest on one well or one pass, so single values are uncertain.
# How the values were obtained:
# Assay in all cases: cell count relative to DMSO control; melanoma cells; higher = more viable cells
# Conditions in all cases: library dose: standard library concentration; 72 h
# G361 = test system: G361
# IPC-298 = test system: IPC-298
# IST-MEL1 = test system: IST-MEL1
# LB2518-MEL = test system: LB2518-MEL
# LOXIMVI = test system: LOXIMVI
# MEL-HO = test system: MEL-HO
# MZ2-MEL = test system: MZ2-MEL
# MeWo = test system: MeWo
# RPMI7951 = test system: RPMI7951
# RVH-421 = test system: RVH-421
# SkMel28 = test system: SkMel28
# SkMel2 = test system: SkMel2
# SkMel30 = test system: SkMel30
# SkMel5 = test system: SkMel5
# UACC257 = test system: UACC257
# UACC62 = test system: UACC62
# WM115 = test system: WM115
# WM1716 = test system: WM1716
# WM1745 = test system: WM1745
# WM3526 = test system: WM3526
# 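Note: cells treated in 1,536-well plates, then fixed and DAPI-stained, with nuclei counted from automated high-throughput microscope images.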
SMILES,cell count (G361) [%],cell count (IPC-298) [%],cell count (IST-MEL1) [%],cell count (LB2518-MEL) [%],cell count (LOXIMVI) [%],cell count (MEL-HO) [%],cell count (MZ2-MEL) [%],cell count (MeWo) [%],cell count (RPMI7951) [%],cell count (RVH-421) [%],cell count (SkMel28) [%],cell count (SkMel2) [%],cell count (SkMel30) [%],cell count (SkMel5) [%],cell count (UACC257) [%],cell count (UACC62) [%],cell count (WM115) [%],cell count (WM1716) [%],cell count (WM1745) [%],cell count (WM3526) [%]
"C[C@]1(O)C[C@@H](c2nc(-c3ccc4ccc(-c5ccccc5)nc4c3)c3c(N)nccn32)C1 + COc1cc(Nc2ncc(F)c(Nc3ccc4c(n3)NC(=O)C(C)(C)O4)n2)cc(OC)c1OC [Tamatinib] (first compound 2 µM, partner dose 2 µM)",59.8,73.8,55.8,84.1,16.1,62,66.1,63.8,17.6,89.9,49.1,59.7,65.7,39.2,69.1,61.9,63.5,61,17.3,53.3
"CCN(CC)CCNC(=O)c1c(C)[nH]c(/C=C2\C(=O)Nc3ccc(F)cc32)c1C [sunitinib] + CC(=O)c1c(C)c2cnc(Nc3ccc(N4CCNCC4)cn3)nc2n(C2CCCC2)c1=O [palbociclib] (first compound 2 µM, partner dose 0.2 µM)",65.6,46.7,66,51.9,166,68.8,51.5,38.2,63.9,54.4,30.2,50.7,54.3,27.4,77,31.4,43.3,54,40.1,36.8
"Cn1cnc2c(F)c(Nc3ccc(Br)cc3Cl)c(C(=O)NOCCO)cc21 [selumetinib] + Nc1ccn([C@@H]2O[C@H](CO)[C@@H](O)C2(F)F)c(=O)n1 [gemcitabine] (first compound 0.075 µM, partner dose 0.002 µM)",30.2,31.2,41.6,46.4,73.9,46.3,64.5,29.6,56.7,48.1,58,54.8,69.6,80.8,109,56.4,73.7,72.8,50.1,69.7
"CCN(CC)CCNC(=O)c1c(C)[nH]c(/C=C2\C(=O)Nc3ccc(F)cc32)c1C [sunitinib] + C=C(c1ccc(C(=O)O)cc1)c1cc2c(cc1C)C(C)(C)CCC2(C)C [Bexarotene] (first compound 2 µM, partner dose 10 µM)",98.2,74.2,101,90.1,205,116,116,74.2,79.2,155,58.9,85.6,53.2,62.1,103,66.2,106,98.6,49.9,66
"Cn1cnc2c(F)c(Nc3ccc(Br)cc3Cl)c(C(=O)NOCCO)cc21 [selumetinib] + Cn1c(=O)n(-c2ccc(C(C)(C)C#N)cc2)c2c3cc(-c4cnc5ccccc5c4)ccc3ncc21 [NVP-BEZ235] (first compound 0.075 µM, partner dose 0.02 µM)",51.8,43.2,70.8,42.3,95.9,65.8,55,59.7,66.4,67.9,39.5,48.9,45.1,60.3,77.6,47.4,52.7,60.4,70.7,46.1
"C[C@]1(O)C[C@@H](c2nc(-c3ccc4ccc(-c5ccccc5)nc4c3)c3c(N)nccn32)C1 + O=C(O)[C@@H]1[O][Sb](=[O])([O][Sb]2(=[O])[O][C@H]([C@H](O)CO)[C@H](O)[C@H](C(=O)O)[O]2)[O][C@H]([C@H](O)CO)[C@@H]1O [stibogluconate] (first compound 2 µM, partner dose 10 µM)",99.3,96.3,98.6,104,75.2,104,111,85.6,69.2,226,93.9,93.8,76.9,72.9,95.7,70.2,88.9,94.7,92.5,70.3
"C[C@]1(O)C[C@@H](c2nc(-c3ccc4ccc(-c5ccccc5)nc4c3)c3c(N)nccn32)C1 + C[C@]1(c2nc3c(C(N)=O)cccc3[nH]2)CCCN1 [Veliparib] (first compound 2 µM, partner dose 7 µM)",93.9,97.9,104,92.9,74.5,113,106,85.1,109,95.2,109,98.1,104,88.8,95.9,61.7,88.6,96.5,69.3,87.2
"COc1cc([C@@H]2c3cc4c(cc3[C@@H](O[C@@H]3O[C@@H]5CO[C@@H](C)O[C@H]5[C@H](O)[C@H]3O)[C@H]3COC(=O)[C@H]23)OCO4)cc(OC)c1O [etoposide] + OCc1c[nH]c2ccccc12 [Indole-3-carbinol] (first compound 0.1 µM, partner dose 4 µM)",99.1,72.1,106,88,97.2,95.3,69.3,104,104,101,80.8,77.5,76.9,68.2,108,73.6,85.2,79.8,89.9,101
